# Reference: ChEMBL document CHEMBL4888484, “Replenishing the malaria drug discovery pipeline: Screening and hit evaluation of the MMV Hit Generation Library 1 (HGL1) against asexual blood stage Plasmodium falciparum ,using a nano luciferase reporter read-out” (2022)
# The campaign covered roughly 150,000 compounds. About 540 (0.36%) showed an effect of 50% or more. The list shows a part of the results.
# Tested on: Plasmodium falciparum
# Assay: Primary screen in NF54 nanoGlo assay, in single point, at 2uM, 72h; a lower Z score goes with more inhibition
# Type: functional, Erythrocyte
# Settings: timepoint 72 hour
Compound,% Inhibition [%],Z score
O=C(NCCc1cnc2c(Cl)cnn2c1)[C@@H]1CCCO1,-11,1.81
Cc1n[nH]c(C)c1S(=O)(=O)NC1CCNCC1C (stereo unspecified),-15,1.73
CC(C)Oc1ccc(C[C@H]2CCC(=O)N(C)C2=O)cc1,-3,0.36
COc1cc(Br)c(F)cc1CN,-10,1.29
CCN(CC(=O)NC(=O)Nc1ccccc1F)[C@@H](C)c1cccc(OC)c1,-6,1.05
O=C(N1CCOCC1)[C@]1(F)CCCN(Cc2ccncc2)C1,-2,0.33
COc1cncc(CCC(=O)N2CCN(Cc3ccccn3)C[C@@H]2C)c1,-5,0.98
COc1ccccc1N1CCN(C(=O)[C@H](C)n2ccnc2)CC1,-19,2.94
CCOC(=O)c1onc(-c2ccccc2)c1NC(=O)[C@H]1CCCO1,-2,0.26
COc1ccc2c(c1)OC(C)(C)C[C@@H]2NC(=O)N1CCc2[nH]nc(C)c2C1,-1,0.26
CC(C)Cc1nc(CN(C)C2CCN(c3ncnc4[nH]cnc34)CC2)no1,-13,1.65
c1ccc2c(CCNCc3cnc(N4CCOCC4)nc3)c[nH]c2c1,-13,1.71
Cn1cc(CN(C(=O)CN2C[C@@H](Cc3ccccc3)CC2=O)C2CC2)cn1,1,-0.09
COc1ccccc1N1CCN(C(=O)c2ccc3c(=O)n4c(nc3c2)CCCCC4)CC1,-7,0.71
CCOc1ccc(-c2cn3ccn(-c4ccc(Cl)cc4)c(=O)c3n2)cc1,29,-3.8
COCC(=O)NC(C)(C)CN(C)Cc1ccccc1,-5,0.48
COc1ccc([C@@]2(C(=O)N3CC(O)C3)CC2(C)C)cc1,0,-0.02
CC[C@H]1CN(C(=O)c2c[nH]c3cccnc23)CCCO1,-1,0.11
CN1CCCN(CC(=O)N2CCN(C)C[C@@H]2c2ccccc2)CC1,-10,1.28
Cc1ccc(CNC(=O)N2CCS(=O)(=O)CC[C@@H]2C)c2ccccc12,32,-3.97
O=C(N[C@@]1(C(F)(F)F)N=C(c2ccccc2)N(C2CCCCC2)C1=O)c1cccnc1,-5,0.51
C[C@H](NC(=O)c1ccc2[nH]cnc2c1)C(=O)N1CCCCC1,0,-0.06
COc1cc(-c2onc(C)c2C(=O)NC2CC(C)(C)N(C)C(C)(C)C2)cc(OC)c1OC,-12,2.26
CC1CN(CC2CCCO2)CCC1NC(=O)c1cc(F)ccc1O (stereo unspecified),-8,0.74
Cc1cc(N2CCN(C)C(=O)[C@@H]2C)nc(N)n1,15,-2.17
Cc1c(CNc2ccc(NC(=O)c3ccccc3)nc2)cc(C#N)n1C,-10,0.95
O=c1c(Br)cncn1CCOc1ccccc1,-4,0.52

Compound,% Inhibition [%],Z score
COc1ccc(OC)c(-c2csc(NC(=O)CCc3c(C)[nH]c(=O)c(C#N)c3C)n2)c1,1,-0.28
O=C([C@@H]1Cc2ccccc21)N(Cc1ccccc1)CC1CCOCC1,-16,1.74
Cc1ccc(-c2nc(C)c(C(=O)O)cc2C#N)c(-n2cccn2)c1,-9,1.5
Cc1nc2ccccc2n1CCNC[C@H]1CCC=CO1,-11,1.52
CC1(C)C[C@@H](c2noc(-c3cc4c(s3)CCOC4)n2)CCO1,8,-1.46
CCn1nc(C(=O)N2CCCCCC2)c2c1CC[C@H](NC1CCCC1)C2,-7,0.88
C[C@H](OC1CCCCCC1)C(=O)Nc1nc2ncccc2[nH]1,26,-2.94
CC(=O)c1ccc(S(=O)(=O)N2CCN(c3ncccc3NC(=O)c3ccc4c(c3)OCO4)CC2)cc1,7,-0.77
CCn1nncc1CNc1ncccc1Cl,-6,0.86
CC[C@](C)(O)CNC(=O)c1ccc(C)cc1F,10,-1.45
CC(C)C(=O)N1CCc2ccc(OCc3nc(C(=O)Nc4ccc(F)cc4)cs3)cc2[C@@H]1c1cccc(F)c1,-9,1.45
COc1ccc(CNC(=O)CCc2nc3c(C)nn(-c4ccc(C)cc4)c3n(C)c2=O)cc1,14,-2.07
CCc1cc(C)c(C(=O)N(C)Cc2nccn2C)o1,-8,1.19
CCn1c(C)c(-c2nc(C3CC3)no2)c(S(=O)(=O)N[C@@H](C)c2ccccn2)c1C,-2,0.37
COc1ccc(CN2CCCN(Cc3ccc(OC)cc3)C2c2ccccc2Br)cc1,35,-3.97
c1cc2c(nc1CNCc1cn3c(n1)CCCC3)CCC2,18,-2.23
C[C@](O)(CNc1cccc(Br)c1C#N)C1CC1,17,-2.21
CCc1nc(CN(C)CCCn2cccn2)n[nH]1,-11,1.29
COc1cc(C(=O)Nc2nnc(-c3cc(C)nn3C)o2)cc(OC)c1OC,-2,0.35
CCN1CCc2nc(-c3ccc(F)cc3)n(CC(=O)Nc3cc(C)ccc3C)c(=O)c2C1,-1,0.16
Cc1cnc(C(=O)N2CCn3nc(CCC(=O)NC4CC4)cc3C2)cn1,-9,1.6
COc1cc(F)c(CN2CCC([C@H](C)N3CCN(C)CC3)CC2)cc1OC,-20,1.85
C[C@H]1[C@@H](NC(=O)Nc2ccncc2)CCS1(=O)=O,4,-0.59
COCCC(C)NC(C)c1ccc(S(N)(=O)=O)cc1F (stereo unspecified),0,0.04
Cc1ccc(C(=O)N2C[C@H]3CCN(C(C)C)C[C@@]3(CO)C2)cc1F,-18,2.16
CCOC(=O)C1CCN(C(=O)c2nn(-c3ccc(C)c(Cl)c3)c(=O)n(Cc3cccc(C)c3)c2=O)CC1,-15,1.42
